Experimental data: the supplement of paper PMC3334620
Whole data set: some 33,000 sequences, median “E-score (-0.5 to 0.5)” near -0.043, cut for the highest 2% near 0.37. Some of the results follow.

The sequences below were run against T1, Upc2 (UniProt Q12151) (assay: PBM E-score (8-mer binding enrichment) (E-score (-0.5 to 0.5)); higher = stronger / more preferred TF binding; most listed sequences are background and not binding sites). Settings: protein concentration: 200 nM; construct: GST-full length.
T1 sequence: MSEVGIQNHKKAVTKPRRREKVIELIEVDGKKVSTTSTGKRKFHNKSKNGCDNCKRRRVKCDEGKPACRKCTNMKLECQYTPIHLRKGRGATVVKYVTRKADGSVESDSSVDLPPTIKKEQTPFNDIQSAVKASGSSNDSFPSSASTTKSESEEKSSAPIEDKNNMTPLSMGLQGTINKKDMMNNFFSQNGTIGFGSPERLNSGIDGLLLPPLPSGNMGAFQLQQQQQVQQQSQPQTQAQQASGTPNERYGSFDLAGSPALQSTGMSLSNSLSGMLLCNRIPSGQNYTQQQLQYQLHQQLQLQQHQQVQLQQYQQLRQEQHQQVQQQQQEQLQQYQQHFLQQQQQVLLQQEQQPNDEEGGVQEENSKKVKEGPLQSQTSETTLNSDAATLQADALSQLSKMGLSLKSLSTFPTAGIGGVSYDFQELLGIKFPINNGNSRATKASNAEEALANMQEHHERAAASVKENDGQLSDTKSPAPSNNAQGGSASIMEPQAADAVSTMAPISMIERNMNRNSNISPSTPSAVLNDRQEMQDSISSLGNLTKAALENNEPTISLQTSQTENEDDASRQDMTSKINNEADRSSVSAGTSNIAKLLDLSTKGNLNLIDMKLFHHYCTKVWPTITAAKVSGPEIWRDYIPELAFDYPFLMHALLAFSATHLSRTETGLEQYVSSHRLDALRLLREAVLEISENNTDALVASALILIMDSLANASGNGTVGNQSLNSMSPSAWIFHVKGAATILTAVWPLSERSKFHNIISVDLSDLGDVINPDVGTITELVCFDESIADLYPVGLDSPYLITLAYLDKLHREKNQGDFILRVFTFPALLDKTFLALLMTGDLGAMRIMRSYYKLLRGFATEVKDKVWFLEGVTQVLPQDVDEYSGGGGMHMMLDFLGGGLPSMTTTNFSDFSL
Summary of the method: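 Each ungapped eight-base word and its reverse complement, pooled, received an E-score from the Universal PBM Analysis Suite. Underlying scans, normalised with masliner, recorded fluorescent anti-GST bound to GST-tagged yeast transcription factors. These were applied at about 100-200 nM to universal all-10-mer Agilent arrays double-stranded by primer extension.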

Sequence	PBM E-score
TGAACCAA	-0.0118
AAATCAAA	-0.0732
ATCTATAG	-0.175
CTGATCCA	-0.238
ACATCAAG	-0.0355
CGCGCTCC	-0.00687
AACTCCGG	0.08
GAGTGCTA	0.0709
GCGTATAA	0.444
GTAGACAA	-0.0587
CATATTCG	0.158
GGAGAGTA	-0.175
TCTTAGAA	-0.0619
CACTTATA	0.183
ACTGCAAG	-0.0743
CTGCCAGC	-0.274
CCAGAGTA	-0.164
ACAATACG	0.358
CGACTTCA	0.114
ACACACTG	0.175
ACCATCGC	0.0261
ACTTTTGA	-0.0729

Sequence	PBM E-score
CACAAGTA	-0.0709
AACCGCTC	-0.0136
AGAGATCG	-0.0121
AGAAGCAA	-0.137
AGGATTGG	-0.117
CCCAACCG	0.0371
ACGTGTCT	0.0353
CCGAGGAA	0.0492
AATCCACT	-0.192
GCCTCGCA	0.137
CATGTAAG	-0.0125
CTAAGGCC	-0.239
AATTATAC	0.29
AAAAGAGA	0.0789
ACGGTAGA	0.143
AGACAACG	-0.0279
CGGATGAG	-0.134
TCAGCTGA	0.0315
ACTTTGCG	0.0188
ATGAGCAG	-0.122
ACCATCCG	0.0546
ATGCCGGG	-0.159

Sequence	PBM E-score
CCTACACA	-0.118
ACCCATCG	0.104
GCGTGTTA	-0.0587
CCACTTTA	-0.0541
CCAAATTA	0.044
AAACCGAA	0.229
CCCTAACG	0.222
GTTGCTTA	-0.0668
AACTTTGC	-0.0748
CGAGTTTA	0.135
AACATCCG	0.0799
AAAGTGCC	-0.176
CATTGTTC	-0.0687
GCTATTGA	-0.0594
AATAGCCG	-0.199
ACTTCATA	0.0058
ACAGTGCA	-0.0434
CACGGATA	0.108
ACACATAT	-0.0137
CACTAAGG	-0.099
CTGAGGTA	-0.203
CAATGACC	-0.116

Sequence	PBM E-score
GCGTGATA	0.0376
CACTTCAC	-0.3
AGCGCAAC	0.149
CGGATTGC	0.0416
CTTTGAAC	0.0876
AAGTCAAG	-0.204
ATGTTCTG	-0.036
CCATTCCG	-0.109
TCAAACAA	-0.0805
GGACCTCC	-0.217
ATTCTCCC	-0.293
CAGTCTGA	-0.101
CGGTCGAA	-0.00348
GCATTAGC	-0.157
ATTAAGAA	0.188
GGGTACCA	-0.275
ATCGCCTA	-0.0815
ACAGAGTA	0.0516
GAGAAATA	0.0258
AATAAGGC	-0.195
ATCCAGAA	0.0453
ACGTTTTA	0.188

Sequence	PBM E-score
GACTATAC	0.319
TACCTTAA	0.274
CAGTCAGA	-0.196
CCGGGGGC	-0.164
ACAGAGCT	-0.262
CCGTATAA	0.483
AAATCGTT	0.339
CCCTGCCA	-0.134
CCAGGCAG	-0.242
ACAAATAG	-0.0638
CACCCCAA	-0.0176
CCCGTTTA	0.456
GGTCTATA	0.123
CTTGCCAC	-0.166
GTTGGGCA	0.0235
AGTGCTTA	-0.0919
AGTGGGCC	-0.0427
GGTATTGA	-0.0792
GCCTTTAC	0.157
AATACACT	-0.0573
AAGTAGGT	-0.0897
